# Experimental data taken from a collection of fitness landscapes (doi:10.1016/j.celrep.2020.107928).
# The full ranking holds about 81,000 sequences; the median of “one-hybrid fitness for binding NBS DNA” is about -0.1, and the highest 2% start at about 0.36. The list shows a part of the results.
# B1: Caulobacter ParB omega fusion; a variant is named by its letters at X, in order, B8GW30 (parent)
# chain: MESVVVGEPGMSEGRRGLGRGLSALLGEVDAAPAQAPGEQLGGSREAPIEILQRNPDQPRRTFREEDLEDLSNSIREKGVLQPILVRPSPDTAGEYQIVAGERAWRAAQRAGLKTVPIMVRELDDLAVLEIGIIENVQRADLNVLEEALSYKVLMEKFERTQENIAQTIGKSXSHVANXMRLLXLPDEVQSYLVSGELTAXHARAIAAAADPVALAKQIIEGGLSVRETEALARKAPNLSAGKSKGGRPPRVKDTDTQALESDLSSVLGLDVSIDHRGSTGTLTITYATLEQLDDLCNRLTRGI
# Variants of: B1
# Assay: one-hybrid fitness for binding NBS DNA (the Noc-binding site; scaled: cognate 1, non-cognate 0); higher = stronger binding
# Details: with NBS DNA site
# How it was run: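 Selection: bacterial one-hybrid in E. coli USO, HIS3 reporter with the site 19 bp from the promoter, 48 hours at 37°C on M9-minus-histidine plus 0.1 mM IPTG and 5 mM 3-AT. Libraries were Caulobacter ParB with four randomised specificity codons, sequenced on Illumina before and after selection. Fitness is the rescaled log change in variant-to-wild-type read ratio, anchored to the cognate and non-cognate sites.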
row,Variant,one-hybrid fitness for binding NBS DNA
1,YNRS,≤ 0.2
2,RCEH,≤ 0.2
3,LVYT,≤ 0.2
4,RSNW,≤ 0.2
5,FNTS,≤ 0.2
6,HSLT,≤ 0.2
7,RKPF,≤ 0.2
8,WNTS,≤ 0.2
9,RQWG,≤ 0.2
10,DLHD,≤ 0.2
11,PHRF,≤ 0.2
12,QHSM,≤ 0.2
13,QWDN,≤ 0.2
14,ARIF,≤ 0.2
15,TDSG,≤ 0.2
16,DNKC,≤ 0.2
17,ARFF,≤ 0.2
18,DWNL,≤ 0.2
19,VTFC,≤ 0.2
20,LSST,≤ 0.2
21,LATS,≤ 0.2
22,GCTF,≤ 0.2
23,NKST,≤ 0.2
24,TIHW,≤ 0.2

row,Variant,one-hybrid fitness for binding NBS DNA
1,GLHY,≤ 0.2
2,KTTR,0.202
3,YNTS,≤ 0.2
4,ERYF,≤ 0.2
5,RFYF,≤ 0.2
6,CAEL,≤ 0.2
7,WRTF,≤ 0.2
8,VIAK,≤ 0.2
9,PNMV,≤ 0.2
10,ALHT,≤ 0.2
11,ANWC,≤ 0.2
12,FARA,≤ 0.2
13,REHK,≤ 0.2
14,KTET,≤ 0.2
15,CYRR,0.223
16,DLMG,≤ 0.2
17,APYS,≤ 0.2
18,KRNI,≤ 0.2
19,TRCL,≤ 0.2
20,SYVM,≤ 0.2
21,HRWT,≤ 0.2
22,CCPT,≤ 0.2
23,RWGR,≤ 0.2
24,QSGV,≤ 0.2

row,Variant,one-hybrid fitness for binding NBS DNA
1,FTVR,≤ 0.2
2,GNTM,≤ 0.2
3,RVAI,≤ 0.2
4,WFQS,≤ 0.2
5,RYIA,≤ 0.2
6,RAPV,≤ 0.2
7,SQSF,≤ 0.2
8,DSRH,≤ 0.2
9,REFR,≤ 0.2
10,QYTW,≤ 0.2
11,ESPR,≤ 0.2
12,IRYS,≤ 0.2
13,YNVW,≤ 0.2
14,RGSC,≤ 0.2
15,SNDF,≤ 0.2
16,DTMS,≤ 0.2
17,SFMY,≤ 0.2
18,VNQD,≤ 0.2
19,YHNG,≤ 0.2
20,SLNI,≤ 0.2
21,QAHY,≤ 0.2
22,VIEG,≤ 0.2
23,GHHR,≤ 0.2
24,DKIG,≤ 0.2

row,Variant,one-hybrid fitness for binding NBS DNA
1,THDR,≤ 0.2
2,RQEE,≤ 0.2
3,RIKW,≤ 0.2
4,AGRS,≤ 0.2
5,AMKT,≤ 0.2
6,CHTS,≤ 0.2
7,INSG,≤ 0.2
8,RKFH,0.212
9,SVRA,≤ 0.2
10,VRRN,≤ 0.2
11,SAGM,≤ 0.2
12,ACGM,≤ 0.2
13,TELL,≤ 0.2
14,VQAR,≤ 0.2
15,VLID,≤ 0.2
16,AITS,≤ 0.2
17,RRDF,≤ 0.2
18,PYPV,≤ 0.2
19,VARS,≤ 0.2
20,YVRC,≤ 0.2
21,YWAR,≤ 0.2
22,SNRI,≤ 0.2
23,EGRG,≤ 0.2
24,HNRC,≤ 0.2

row,Variant,one-hybrid fitness for binding NBS DNA
1,AILS,≤ 0.2
2,RVNT,0.576
3,APTC,≤ 0.2
4,GIQR,≤ 0.2
5,DRMC,≤ 0.2
6,DFTA,≤ 0.2
7,YDHG,≤ 0.2
8,LLVV,≤ 0.2
9,EPPI,≤ 0.2
10,MPGS,≤ 0.2
11,KCRG,≤ 0.2
12,VYSC,≤ 0.2
13,HNAD,≤ 0.2
14,NLSV,≤ 0.2
15,LVIR,≤ 0.2
16,TRTW,≤ 0.2
17,QLDN,≤ 0.2
18,FNGG,≤ 0.2
19,ACCC,≤ 0.2
20,AVFG,≤ 0.2
21,NRRY,≤ 0.2
22,QRKQ,0.492
23,GTLP,≤ 0.2
24,DRIR,≤ 0.2

row,Variant,one-hybrid fitness for binding NBS DNA
1,LKSR,≤ 0.2
2,DYSS,≤ 0.2
3,SINC,≤ 0.2
4,ETMG,≤ 0.2
5,RYRL,≤ 0.2
6,LPQS,≤ 0.2
7,KVCS,≤ 0.2
8,RRYW,≤ 0.2
9,MHST,≤ 0.2
10,RFMR,≤ 0.2
11,RTLM,≤ 0.2
12,VNSS,≤ 0.2
13,YATL,≤ 0.2
14,TTYC,≤ 0.2
15,YKLG,≤ 0.2
16,VMKI,≤ 0.2
17,VHAG,≤ 0.2
18,PDAD,≤ 0.2
19,HRWS,≤ 0.2
20,CYMS,≤ 0.2
21,FRSM,≤ 0.2
22,PSGS,≤ 0.2
23,VEIY,≤ 0.2
24,QPKG,≤ 0.2

row,Variant,one-hybrid fitness for binding NBS DNA
1,PASC,≤ 0.2
2,FDTV,≤ 0.2
3,HWTY,≤ 0.2
4,SYCS,≤ 0.2
5,IVPY,≤ 0.2
6,QAER,0.304
7,IDHM,≤ 0.2
8,VAWQ,≤ 0.2
9,WVCG,≤ 0.2
10,VWPS,≤ 0.2
11,RDHE,≤ 0.2
12,CSAG,≤ 0.2
13,FVVC,≤ 0.2
14,QCRE,0.369
15,VKMS,≤ 0.2
16,YFTV,≤ 0.2
17,AKYC,≤ 0.2
18,GHSY,≤ 0.2
19,FMEG,≤ 0.2
20,QTLL,≤ 0.2
21,STSH,≤ 0.2
22,QLYS,0.252
23,AVPG,≤ 0.2
24,HSSN,≤ 0.2

row,Variant,one-hybrid fitness for binding NBS DNA
1,TQVY,≤ 0.2
2,ISSN,≤ 0.2
3,HPMR,≤ 0.2
4,PCFK,≤ 0.2
5,RAEH,≤ 0.2
6,KSTF,≤ 0.2
7,LLSH,≤ 0.2
8,NNMV,≤ 0.2
9,ANWN,≤ 0.2
10,VAIS,≤ 0.2
11,GILV,≤ 0.2
12,QMES,0.268
13,KWHR,≤ 0.2
14,RLAI,≤ 0.2
15,DGLV,≤ 0.2
16,DWRT,≤ 0.2
17,NFIG,≤ 0.2
18,ETVY,≤ 0.2
19,KRPV,≤ 0.2
20,CFNT,≤ 0.2
21,GLYM,≤ 0.2
22,WSLF,≤ 0.2
23,CLHT,≤ 0.2
24,RRFY,0.314

row,Variant,one-hybrid fitness for binding NBS DNA
1,SEHV,≤ 0.2
2,CQPG,≤ 0.2
3,RLEP,≤ 0.2
4,DKPK,≤ 0.2
5,IQYC,≤ 0.2
6,DCLV,≤ 0.2
7,WKST,≤ 0.2
8,KSYK,≤ 0.2
9,YVMG,≤ 0.2
10,VWTA,≤ 0.2
11,RWFY,≤ 0.2
12,AAVI,≤ 0.2
13,YDVS,≤ 0.2
14,SVLI,≤ 0.2
15,TIGF,≤ 0.2
16,MRAS,≤ 0.2
17,FGCT,≤ 0.2
18,TPDS,≤ 0.2
19,NYAG,≤ 0.2
20,RKAS,0.597
21,ALPF,≤ 0.2
22,FVLQ,≤ 0.2
23,HMFG,≤ 0.2
24,GIAS,≤ 0.2

row,Variant,one-hybrid fitness for binding NBS DNA
1,QVLM,≤ 0.2
2,STAK,≤ 0.2
3,SYKA,≤ 0.2
4,WGTW,≤ 0.2
5,RWTW,≤ 0.2
6,LDGG,≤ 0.2
7,AGAR,≤ 0.2
8,STGC,≤ 0.2
9,DHWR,≤ 0.2
10,SNTG,≤ 0.2
11,GQYP,≤ 0.2
12,KEKR,≤ 0.2
13,ILRR,≤ 0.2
14,NAYI,≤ 0.2
15,TANF,≤ 0.2
16,KKKM,≤ 0.2
17,VAWT,≤ 0.2
18,LKAD,≤ 0.2
19,PLNQ,≤ 0.2
20,SALG,≤ 0.2
21,NRQR,≤ 0.2
22,MLLY,≤ 0.2
23,GYRC,≤ 0.2
24,LAGN,≤ 0.2

row,Variant,one-hybrid fitness for binding NBS DNA
1,GRVC,≤ 0.2
2,SLRR,≤ 0.2
3,AKAY,≤ 0.2
4,GARL,≤ 0.2
5,SQYV,≤ 0.2
6,VTSR,≤ 0.2
7,LNQK,≤ 0.2
8,HRAA,≤ 0.2
9,RHLR,0.329
10,LRSW,≤ 0.2
11,HRVS,≤ 0.2
12,MTND,≤ 0.2
13,KVPR,≤ 0.2
14,FSQR,≤ 0.2
15,EGRT,≤ 0.2
16,SWHY,≤ 0.2
17,AYDR,≤ 0.2
18,PGSR,≤ 0.2
19,FNNG,≤ 0.2
20,LEST,≤ 0.2
21,CISS,≤ 0.2
22,TVKH,≤ 0.2
23,IDAK,≤ 0.2
24,KLDL,≤ 0.2

row,Variant,one-hybrid fitness for binding NBS DNA
1,PISG,≤ 0.2
2,QFPS,≤ 0.2
3,LNPD,≤ 0.2
4,DLYL,≤ 0.2
5,RFEA,≤ 0.2
6,TRKH,0.364
7,PNLR,≤ 0.2
8,ITSK,≤ 0.2
9,HKFS,≤ 0.2
10,QGVA,≤ 0.2
11,TDQT,≤ 0.2
12,WRTS,≤ 0.2
13,YHSC,≤ 0.2
14,NHPE,≤ 0.2
15,MTCD,≤ 0.2
16,LARW,≤ 0.2
17,RHMA,≤ 0.2
18,EENK,≤ 0.2
19,DFTT,≤ 0.2
20,EQNW,≤ 0.2
21,AMIG,≤ 0.2
22,AEKC,≤ 0.2
23,KYYC,≤ 0.2
24,SRAY,≤ 0.2

row,Variant,one-hybrid fitness for binding NBS DNA
1,SQPS,≤ 0.2
2,QGIG,≤ 0.2
3,QWSC,≤ 0.2
4,TVAD,≤ 0.2
5,LMSG,≤ 0.2
6,PPSH,≤ 0.2
7,RDNM,≤ 0.2
8,NNEA,≤ 0.2
9,YAPT,≤ 0.2
10,GDAS,≤ 0.2
11,DLTP,≤ 0.2
12,TPVK,≤ 0.2
13,SHSI,≤ 0.2
14,YDAI,≤ 0.2
15,DSWG,≤ 0.2
16,QDPT,≤ 0.2
17,VLYV,≤ 0.2
18,NVRF,≤ 0.2
